Sequences and labels used below:
B1: Caulobacter ParB omega fusion; a variant is named by its letters at X, in order, B8GW30 (parent)
chain: MESVVVGEPGMSEGRRGLGRGLSALLGEVDAAPAQAPGEQLGGSREAPIEILQRNPDQPRRTFREEDLEDLSNSIREKGVLQPILVRPSPDTAGEYQIVAGERAWRAAQRAGLKTVPIMVRELDDLAVLEIGIIENVQRADLNVLEEALSYKVLMEKFERTQENIAQTIGKSXSHVANXMRLLXLPDEVQSYLVSGELTAXHARAIAAAADPVALAKQIIEGGLSVRETEALARKAPNLSAGKSKGGRPPRVKDTDTQALESDLSSVLGLDVSIDHRGSTGTLTITYATLEQLDDLCNRLTRGI

Whole data set: some 81,000 sequences, median “one-hybrid fitness for binding parS DNA” near -0.17, cut for the highest 2% near 0.51. Some of the results follow. Where only a bound is given, the exact number is not on record here.

Variants of B1 are the subject of this test. Nature of the test: one-hybrid fitness for binding parS DNA (scaled: cognate 1, non-cognate 0); higher = stronger binding. The settings on record: with parS DNA site. Summed up:
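Values were rescaled so that cognate is 1 and non-cognate is 0. Each is a fitness, the log change in a variant's read ratio to wild type from Illumina reads of plasmids before and after selection, with three replicate libraries pooled and variants under 10 reads dropped. Selection of the Caulobacter ParB libraries, four specificity codons randomised, used E. coli USO with a HIS3 reporter, site 19 bp from the promoter, on M9-minus-histidine with 0.1 mM IPTG and 5 mM 3-AT for 48 hours at 37°C.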
In the case of TSWM, the “one-hybrid fitness for binding parS DNA” value is at most 0.2.
Regarding AWGR, the “one-hybrid fitness for binding parS DNA” value was at most 0.2.
GSKC: the “one-hybrid fitness for binding parS DNA” value was at most 0.2.
For YEAC, the “one-hybrid fitness for binding parS DNA” value is at most 0.2.
The value for RHYK was at most 0.2; that for NNIR was at most 0.2; that for ISKG was at most 0.2.
With LYIP, the “one-hybrid fitness for binding parS DNA” value is at most 0.2.
The value for LQKM was at most 0.2.
The value for RGFQ was at most 0.2; that for KTDK was at most 0.2; that for QLWS was at most 0.2.
The value for MRLG was at most 0.2.
For LTQL, the “one-hybrid fitness for binding parS DNA” value was at most 0.2.
PRWE: the “one-hybrid fitness for binding parS DNA” value was at most 0.2.
For HRWR, the “one-hybrid fitness for binding parS DNA” value was at most 0.2.
For QPNH, the “one-hybrid fitness for binding parS DNA” value was at most 0.2.
Regarding TLVP, the “one-hybrid fitness for binding parS DNA” value is at most 0.2.
For the variant TSAA, the “one-hybrid fitness for binding parS DNA” value is at most 0.2.
As to QHED, the “one-hybrid fitness for binding parS DNA” value was at most 0.2.
For the variant DDAT, the “one-hybrid fitness for binding parS DNA” value is at most 0.2.
The value for RSQI was at most 0.2; that for QNSL was at most 0.2; that for HGQW was at most 0.2.
For FRWL, the “one-hybrid fitness for binding parS DNA” value was at most 0.2.
Regarding LLFA, the “one-hybrid fitness for binding parS DNA” value was at most 0.2.
With PNPS, the “one-hybrid fitness for binding parS DNA” value was at most 0.2.
Regarding CYYG, the “one-hybrid fitness for binding parS DNA” value was at most 0.2.
The value for GTKA was at most 0.2; that for ESHS was at most 0.2.
Regarding DACT, the “one-hybrid fitness for binding parS DNA” value is at most 0.2.
Regarding AMTV, the “one-hybrid fitness for binding parS DNA” value is at most 0.2.
The value for LMSL was at most 0.2; that for RMKV was at most 0.2.
On to QMVS, for which the “one-hybrid fitness for binding parS DNA” value is at most 0.2.
Consider DRYK, for which the “one-hybrid fitness for binding parS DNA” value is at most 0.2.
With TTTW, the “one-hybrid fitness for binding parS DNA” value is at most 0.2.
As to SADH, the “one-hybrid fitness for binding parS DNA” value was at most 0.2.
Turning to ETGR, the “one-hybrid fitness for binding parS DNA” value is at most 0.2.
Consider GSMY, for which the “one-hybrid fitness for binding parS DNA” value was at most 0.2.
TDHL: the “one-hybrid fitness for binding parS DNA” value was at most 0.2.
KRGF: the “one-hybrid fitness for binding parS DNA” value is at most 0.2.
In the case of SYVS, the “one-hybrid fitness for binding parS DNA” value was at most 0.2.
LDTW: the “one-hybrid fitness for binding parS DNA” value was at most 0.2.
For MKTR, the “one-hybrid fitness for binding parS DNA” value was at most 0.2.
The value for GMCE was at most 0.2.
Take SKDT: the “one-hybrid fitness for binding parS DNA” value was at most 0.2.
The value for QHNL was at most 0.2; that for IRKW was at most 0.2.
RPCI: the “one-hybrid fitness for binding parS DNA” value is at most 0.2.
Take RNQN: the “one-hybrid fitness for binding parS DNA” value was found to be 0.284.
For the variant NVWL, the “one-hybrid fitness for binding parS DNA” value was at most 0.2.
In the case of HNTM, the “one-hybrid fitness for binding parS DNA” value was at most 0.2.
Take ACCP: the “one-hybrid fitness for binding parS DNA” value is at most 0.2.
The value for FVQC was at most 0.2; that for QQVL was at most 0.2.
With RPRE, the “one-hybrid fitness for binding parS DNA” value was at most 0.2.
In the case of AGSL, the “one-hybrid fitness for binding parS DNA” value is at most 0.2.
The value for CLVM was at most 0.2; that for HFKK was at most 0.2.
As to TACC, the “one-hybrid fitness for binding parS DNA” value is at most 0.2.
As to PNKR, the “one-hybrid fitness for binding parS DNA” value was at most 0.2.
With PNDH, the “one-hybrid fitness for binding parS DNA” value was at most 0.2.
In the case of YRTA, the “one-hybrid fitness for binding parS DNA” value was at most 0.2.
For TMRY, the “one-hybrid fitness for binding parS DNA” value is at most 0.2.
For CQNS, the “one-hybrid fitness for binding parS DNA” value is at most 0.2.
Consider VMQG, for which the “one-hybrid fitness for binding parS DNA” value was at most 0.2.
Take RECR: the “one-hybrid fitness for binding parS DNA” value was at most 0.2.
In the case of FAAV, the “one-hybrid fitness for binding parS DNA” value is at most 0.2.
Consider NSSA, for which the “one-hybrid fitness for binding parS DNA” value is at most 0.2.
The value for TNWR was at most 0.2.
For CDLS, the “one-hybrid fitness for binding parS DNA” value is at most 0.2.
Consider QACY, for which the “one-hybrid fitness for binding parS DNA” value was at most 0.2.
Consider SLPH, for which the “one-hybrid fitness for binding parS DNA” value is at most 0.2.
The value for PLSC was at most 0.2; that for PAMC was at most 0.2.
DTPC: the “one-hybrid fitness for binding parS DNA” value is at most 0.2.
On to RCAL, for which the “one-hybrid fitness for binding parS DNA” value was at most 0.2.
The value for PCTQ was at most 0.2.
As for PMPS, the “one-hybrid fitness for binding parS DNA” value is at most 0.2.
As to SWPR, the “one-hybrid fitness for binding parS DNA” value is at most 0.2.
Take ITVG: the “one-hybrid fitness for binding parS DNA” value was at most 0.2.
With TLIW, the “one-hybrid fitness for binding parS DNA” value is at most 0.2.
TPNR: the “one-hybrid fitness for binding parS DNA” value was at most 0.2.
Regarding IHRT, the “one-hybrid fitness for binding parS DNA” value is at most 0.2.
The value for GPIE was at most 0.2.
Consider AEHR, for which the “one-hybrid fitness for binding parS DNA” value is at most 0.2.
On to WGGS, for which the “one-hybrid fitness for binding parS DNA” value was at most 0.2.
Turning to RLTK, the “one-hybrid fitness for binding parS DNA” value is at most 0.2.
Turning to RMTS, the “one-hybrid fitness for binding parS DNA” value is 0.975.
Regarding IYKM, the “one-hybrid fitness for binding parS DNA” value is at most 0.2.
Turning to SQNC, the “one-hybrid fitness for binding parS DNA” value was at most 0.2.
SCCG: the “one-hybrid fitness for binding parS DNA” value is at most 0.2.
On to NGNA, for which the “one-hybrid fitness for binding parS DNA” value was at most 0.2.
As to QRFD, the “one-hybrid fitness for binding parS DNA” value was at most 0.2.
For DEPW, the “one-hybrid fitness for binding parS DNA” value is at most 0.2.
VMAH: the “one-hybrid fitness for binding parS DNA” value is at most 0.2.
As for LRIA, the “one-hybrid fitness for binding parS DNA” value was at most 0.2.
The value for VSMP was at most 0.2; that for KNHT was at most 0.2; that for NDRG was at most 0.2.
The value for HNRT was at most 0.2.
On to CCPG, for which the “one-hybrid fitness for binding parS DNA” value is at most 0.2.
The value for SQQN was at most 0.2; that for RTPM was at most 0.2; that for FMDL was at most 0.2.
For the variant FNRV, the “one-hybrid fitness for binding parS DNA” value was at most 0.2.
LTFL: the “one-hybrid fitness for binding parS DNA” value was at most 0.2.
QTMN: the “one-hybrid fitness for binding parS DNA” value is at most 0.2.
The value for FAPV was at most 0.2; that for ECTN was at most 0.2.
As for SGST, the “one-hybrid fitness for binding parS DNA” value is at most 0.2.
Regarding SQLS, the “one-hybrid fitness for binding parS DNA” value is at most 0.2.
The value for RGGS was 0.733; that for MCMG was at most 0.2; that for MDEG was at most 0.2.
MSAC: the “one-hybrid fitness for binding parS DNA” value is at most 0.2.
Regarding IYRI, the “one-hybrid fitness for binding parS DNA” value was at most 0.2.
As to PLHS, the “one-hybrid fitness for binding parS DNA” value was at most 0.2.
The value for PHNH was at most 0.2; that for DQGY was at most 0.2.
For the variant RSQQ, the “one-hybrid fitness for binding parS DNA” value was at most 0.2.
As to MGWS, the “one-hybrid fitness for binding parS DNA” value is at most 0.2.
The value for PPAN was at most 0.2.
For YYLR, the “one-hybrid fitness for binding parS DNA” value was at most 0.2.
With IMRY, the “one-hybrid fitness for binding parS DNA” value is at most 0.2.
As for WDPR, the “one-hybrid fitness for binding parS DNA” value is at most 0.2.
In the case of LWDT, the “one-hybrid fitness for binding parS DNA” value was at most 0.2.
The value for DNQC was at most 0.2; that for RRVR was at most 0.2; that for HMPE was at most 0.2.
In the case of YFYG, the “one-hybrid fitness for binding parS DNA” value is at most 0.2.
In the case of HREA, the “one-hybrid fitness for binding parS DNA” value was at most 0.2.
Consider AMMT, for which the “one-hybrid fitness for binding parS DNA” value is at most 0.2.
Consider NSIR, for which the “one-hybrid fitness for binding parS DNA” value is at most 0.2.
On to SSRY, for which the “one-hybrid fitness for binding parS DNA” value was at most 0.2.
For the variant SCHH, the “one-hybrid fitness for binding parS DNA” value was at most 0.2.
Consider RHVF, for which the “one-hybrid fitness for binding parS DNA” value was at most 0.2.
Regarding EKTG, the “one-hybrid fitness for binding parS DNA” value was at most 0.2.
On to PLKL, for which the “one-hybrid fitness for binding parS DNA” value is at most 0.2.
The value for RYPP was at most 0.2; that for AWHV was at most 0.2.
NHAG: the “one-hybrid fitness for binding parS DNA” value was at most 0.2.
Regarding LVQN, the “one-hybrid fitness for binding parS DNA” value is at most 0.2.
For NSQC, the “one-hybrid fitness for binding parS DNA” value was at most 0.2.
Regarding ISHH, the “one-hybrid fitness for binding parS DNA” value turned out to be 0.237.
The value for NNEL was at most 0.2; that for YRMS was at most 0.2.
Consider SVID, for which the “one-hybrid fitness for binding parS DNA” value is at most 0.2.
TDTW: the “one-hybrid fitness for binding parS DNA” value was at most 0.2.
For QQIK, the “one-hybrid fitness for binding parS DNA” value is at most 0.2.
Turning to QAHG, the “one-hybrid fitness for binding parS DNA” value is at most 0.2.
With RYCT, the “one-hybrid fitness for binding parS DNA” value is 0.852.

The record behind these values is a collection of fitness landscapes (doi:10.1016/j.celrep.2020.107928).
